In all, about 39,000 compounds went through this assay and about 220 (0.56%) showed activity. The list shows a part of the results.
Test system: Escherichia coli K-12 BW25113
Assay: relative growth (OD600 normalised to plate interquartile mean) (fraction); higher = less growth inhibition, active = 0.2 or less
Conditions: 50 µM; LB; incubation time: overnight (16-24 h)
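Further: static incubation at 37 °C against the wild-type strain, values averaged over two biological replicates.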

Compound | relative growth
C=CCC[C@@H](Cc1ccc(F)cc1)C(=O)OC[C@@H](NC(=O)[C@@H](CC=C)CC(=O)N[C@@H](CO)Cc1ccccc1)C(C)(C)C | inactive: 0.987
C[C@H]1CN([C@@H](C)CO)C(=O)c2cc(NC(=O)CCC(F)(F)F)ccc2O[C@H]1CN(C)Cc1ccc(-c2ccccc2)cc1 | inactive: 0.961
C[C@@H]1CN([C@@H](C)CO)C(=O)c2cc(Br)cnc2O[C@H]1CN(C)Cc1cccc(C(=O)O)c1 | inactive: 1.01
COc1cc2c3cc1Oc1cc(ccc1O)C[C@@H]1c4c(cc(OC)c(O)c4Oc4ccc(cc4)C[C@@H]3N(C)CC2)CC[N+]1(C)C | inactive: 1.03
Cc1ncc([N+](=O)[O-])n1CC(C)O (centres undefined) | inactive: 0.999
COc1ccc(S(=O)(=O)Nc2ccc3c(c2)C(=O)N([C@H](C)CO)C[C@@H](C)[C@H](CN(C)Cc2ccc(Cl)c(Cl)c2)OCCCC[C@@H](C)O3)cc1 | inactive: 0.971
C[C@H](CO)N1C[C@H](C)[C@H](CN(C)S(=O)(=O)c2cccs2)Oc2ccc(NC(=O)Nc3cccc4ccccc34)cc2CC1=O | inactive: 0.999
CO[C@@H]1CN(C)C(=O)c2cc(NC(=O)CC(F)(F)F)ccc2OC[C@@H](C)N(C(=O)C2CCOCC2)C[C@H]1C | inactive: 0.998
CCCCc1oc2ccccc2c1C(=O)c1cc(I)c(OCCN(CC)CC)c(I)c1.Cl | inactive: 0.919
C[C@@H]1CCCCO[C@H](CN(C)S(=O)(=O)c2ccc(Cl)cc2)[C@H](C)CN([C@@H](C)CO)C(=O)c2cc(NS(=O)(=O)c3ccccc3)ccc2O1 | inactive: 1.02
COc1cc(N2CCC(O)CC2)ccc1Nc1cc(Nc2ccccc2S(=O)(=O)C(C)C)c2cc[nH]c2n1 | inactive: 1.03
COc1ccc(NC(=O)Nc2ccc3c(c2)C(=O)N([C@@H](C)CO)C[C@@H](C)[C@@H](CN(C)Cc2ccc(Cl)c(Cl)c2)O3)cc1 | inactive: 1.01
C[C@H]1CN([C@@H](C)CO)C(=O)c2cccc(NS(=O)(=O)c3ccc(F)cc3)c2O[C@H]1CN(C)Cc1ccc(Cl)c(Cl)c1 | inactive: 0.996
CNC[C@@H]1OCCCC[C@H](C)Oc2ccc(NS(=O)(=O)c3c(C)noc3C)cc2C(=O)N([C@@H](C)CO)C[C@H]1C | inactive: 0.994
C[C@@H]1CN([C@H](C)CO)C(=O)c2cc(NS(=O)(=O)c3cccs3)ccc2O[C@@H](C)CCCCO[C@@H]1CN(C)Cc1ccc(Cl)c(Cl)c1 | inactive: 0.998
C[C@H](CO)N1C[C@H](C)[C@@H](CN(C)C(=O)Nc2ccc(F)cc2)OCc2ccccc2-c2c(n(C)c3ccccc23)C1=O | inactive: 0.917
C[C@H](CO)N1C[C@H](C)[C@@H](CN(C)Cc2ccc(-c3ccccc3)cc2)Oc2c(NC(=O)C3CCOCC3)cccc2C1=O | inactive: 1.03
O=C(COC(=O)/C=C/c1cn(-c2ccccc2)nc1-c1ccc2c(c1)OCCO2)N[C@H]1CCS(=O)(=O)C1 | inactive: 0.998
COCCOC(=O)N1C(=O)[C@@]2(c3cc(C#Cc4ccc(OC)cc4)ccc31)[C@H](C(=O)N1CCc3cc(OC)c(OC)cc3C1)[C@H]1C(=O)O[C@H](c3ccccc3)[C@H](c3ccccc3)N1[C@@H]2c1ccc(O)cc1 | inactive: 1.04
C[C@H](CO)N1C[C@H](C)[C@@H](CN(C)C(=O)Nc2ccc(F)cc2)Oc2ccc(NC(=O)CCN3CCOCC3)cc2CC1=O | inactive: 0.991

Compound | relative growth
C[C@@H]1CCCCO[C@H](CN(C)C(=O)c2ccccc2)[C@@H](C)CN([C@H](C)CO)C(=O)c2cc(NC(=O)CCC(F)(F)F)ccc2O1 | inactive: 0.989
CCS(=O)(=O)Nc1ccc2c(c1)C(=O)N(C)[C@@H]1CC[C@@H](CC(=O)N[C@@H]3CCN(Cc4ccccc4)C3)O[C@@H]1CO2 | inactive: 1.01
COc1ccc(NC(=O)N(C)C[C@H]2Oc3c(NC(=O)Nc4ccc(C(F)(F)F)cc4)cccc3C(=O)N([C@@H](C)CO)C[C@@H]2C)cc1 | inactive: 0.806
COc1ccc(S(=O)(=O)Nc2ccc3c(c2)C(=O)N([C@@H](C)CO)C[C@@H](C)[C@@H](CN(C)Cc2ccc(-c4ccccc4)cc2)O3)cc1 | inactive: 1.05
C=CCOC(=O)O[C@H]1[C@@H](OC)O[C@H](COC(=O)NCCCCCC(=O)NO)[C@H]2OC(=O)[C@@H](Cc3cccc(Br)c3)C/C=C/C[C@H](Cc3ccccc3)C(=O)O[C@H]12 | inactive: 0.986
Cl.O=C1CC2(CCCC2)CC(=O)N1CCCCN1CCN(c2ncccn2)CC1 | active: 0.0493
CN1CCCN=C1C=Cc1cccc(O)c1.O=C(O)c1cc2ccccc2c(Cc2c(O)c(C(=O)O)cc3ccccc23)c1O | inactive: 1.1
CC(C)(C)[S@@](=O)N1Cc2cc(C(=O)N3CCCCC3)nc(-c3cccc(-c4ccc(F)cc4)c3)c2[C@H]1CCO | inactive: 0.977
C[C@@H]1CN([C@@H](C)CO)C(=O)c2cc(NS(C)(=O)=O)ccc2O[C@H]1CN(C)Cc1ccc(C(F)(F)F)cc1 | inactive: 0.973
CCN(CC)c1nc(C#N)nc(OC)n1 | inactive: 0.98
COc1cccc(S(=O)(=O)N[C@@H]2C=C[C@H](CC(=O)NC3CCC3)O[C@H]2CO)c1 | inactive: 0.989
O=C1CCOC1 | inactive: 0.985
CC(C)NC(=O)N(C)C[C@@H]1OCCCC[C@@H](C)Oc2ccc(NS(C)(=O)=O)cc2C(=O)N([C@H](C)CO)C[C@H]1C | inactive: 1
C[C@H](CO)N1C[C@H](C)[C@H](CN(C)C(=O)Nc2ccccc2)OCCCC[C@H](C)Oc2ccc(NC(=O)Nc3ccc4c(c3)OCO4)cc2C1=O | inactive: 0.995
CO[C@@H]1CN(C)C(=O)c2ccc(NS(=O)(=O)c3cn(C)cn3)cc2OC[C@H](C)N(Cc2cccc(F)c2)C[C@@H]1C | inactive: 0.986
O=C(Nc1ccc(Cl)cc1)Nc1ccc(Cl)c(Cl)c1 | inactive: 0.92
COc1cccc(CN(C)C[C@H]2OCc3ccccc3-c3c(n(C)c4ccccc34)C(=O)N([C@H](C)CO)C[C@@H]2C)c1 | inactive: 0.993
C[C@@H]1CN([C@H](C)CO)C(=O)c2cc(NC(=O)Nc3ccc(C(F)(F)F)cc3)ccc2O[C@@H]1CN(C)Cc1ccc(C(=O)O)cc1 | inactive: 0.99
Cc1ccc(S(=O)(=O)Nc2ccc3c(c2)CC(=O)N([C@H](C)CO)C[C@H](C)[C@@H](CN(C)S(=O)(=O)c2cccs2)O3)cc1 | inactive: 1.02
COc1ccc(S(=O)(=O)Nc2cccc3c2O[C@H](CN(C)Cc2ccc(Cl)c(Cl)c2)[C@@H](C)CN([C@H](C)CO)C3=O)cc1 | inactive: 0.914

Compound | relative growth
O=C(C[C@H]1NCCNC1=O)Nc1ccccc1 | inactive: 0.998
C[C@@H]1CN([C@@H](C)CO)C(=O)Cc2cc(NC(=O)CCCN(C)C)ccc2O[C@H]1CN(C)S(=O)(=O)c1ccc(Cl)cc1 | inactive: 1.02
C[C@@H]1CN([C@H](C)CO)S(=O)(=O)c2ccc(C#CC3(O)CCCC3)cc2O[C@@H]1CN(C)C(=O)Cc1ccncc1 | inactive: 0.981
O=C1CCSc2ccc(F)cc21 | inactive: 0.976
O=C(C[C@@H]1C[C@H]2c3cc(NC(=O)NC4CCCC4)ccc3O[C@H]2[C@@H](CO)O1)NCc1ccc(Oc2ccccc2)cc1 | inactive: 0.975
Cc1cc(=O)n2nc(S(C)(=O)=O)nc2[nH]1 | inactive: 0.996
C[C@H](CO)N1C[C@H](C)[C@@H](CN(C)C(=O)Nc2ccccc2)Oc2c(NC(=O)C3CCOCC3)cccc2C1=O | inactive: 0.991
O=C(C[C@@H]1CC[C@H]2[C@@H](COC[C@H](O)CN2S(=O)(=O)c2ccc(Cl)cc2)O1)N[C@@H]1CCN(Cc2ccccc2)C1 | inactive: 0.991
C[C@H](CO)N1C[C@H](C)[C@@H](CN(C)Cc2ccc(Cl)c(Cl)c2)Oc2c(NC(=O)Nc3ccc(C(F)(F)F)cc3)cccc2C1=O | inactive: 0.914
C[C@H]1CN([C@@H](C)CO)S(=O)(=O)c2ccc(C#Cc3ccccc3F)cc2O[C@@H]1CN(C)C(=O)Cc1ccncc1 | inactive: 0.996
CCC(=O)OC(OP(=O)(CCCCc1ccccc1)CC(=O)N1CC(C2CCCCC2)CC1C(=O)[O-])C(C)C.[Na+] (centres undefined) | inactive: 1.01
C[C@@H]1CCCCO[C@@H](CN(C)C(=O)Nc2ccc(F)cc2)[C@H](C)CN([C@H](C)CO)C(=O)c2cc(NS(=O)(=O)c3ccc(F)cc3)ccc2O1 | inactive: 1.01
COc1ccc(NC(=O)Nc2ccc3c(c2)C(=O)N([C@@H](C)CO)C[C@@H](C)[C@H](CN(C)S(=O)(=O)c2cccs2)OCCCC[C@@H](C)O3)cc1 | inactive: 1.02
O=C(N[C@H]1CC=CC[C@H](CC(=O)N(CCO)Cc2ccccc2)C(=O)N[C@@H](Cc2ccccc2)COC1=O)OCC1c2ccccc2-c2ccccc21 | inactive: 0.969
COc1ccc(S(=O)(=O)N(C)C[C@H]2Oc3ccc(NS(=O)(=O)c4cccs4)cc3C(=O)N([C@H](C)CO)C[C@H]2C)cc1 | inactive: 1.02
CN(C)CCCC1(c2ccc(F)cc2)OCc2cc(C#N)ccc21.O=C(O)C(=O)O (centres undefined) | inactive: 1.08
Cc1c(C(=O)Nc2ccc(Oc3ccnc4cc(OCC(C)(C)O)ccc34)c(F)c2)c(=O)n(-c2ccccc2)n1C | inactive: 0.961
C[C@@H]1CN([C@H](C)CO)C(=O)c2cccc(NC(=O)Nc3ccc(C(F)(F)F)cc3)c2O[C@H]1CN(C)S(=O)(=O)c1ccc(Cl)cc1 | inactive: 0.748
C[C@H](CO)N1C[C@H](C)[C@H](CN(C)C(=O)NC2CCCCC2)Oc2ccc(NC(=O)Nc3ccc(C(F)(F)F)cc3)cc2CC1=O | inactive: 1.03
